Test results: the supplement of paper PMC3334620
The full ranking holds about 33,000 sequences; the median of “E-score (-0.5 to 0.5)” is about -0.032, and the highest 2% start at about 0.36. The list shows a part of the results.

Molecular target: T1, Sko1 (UniProt Q02100)
T1 sequence: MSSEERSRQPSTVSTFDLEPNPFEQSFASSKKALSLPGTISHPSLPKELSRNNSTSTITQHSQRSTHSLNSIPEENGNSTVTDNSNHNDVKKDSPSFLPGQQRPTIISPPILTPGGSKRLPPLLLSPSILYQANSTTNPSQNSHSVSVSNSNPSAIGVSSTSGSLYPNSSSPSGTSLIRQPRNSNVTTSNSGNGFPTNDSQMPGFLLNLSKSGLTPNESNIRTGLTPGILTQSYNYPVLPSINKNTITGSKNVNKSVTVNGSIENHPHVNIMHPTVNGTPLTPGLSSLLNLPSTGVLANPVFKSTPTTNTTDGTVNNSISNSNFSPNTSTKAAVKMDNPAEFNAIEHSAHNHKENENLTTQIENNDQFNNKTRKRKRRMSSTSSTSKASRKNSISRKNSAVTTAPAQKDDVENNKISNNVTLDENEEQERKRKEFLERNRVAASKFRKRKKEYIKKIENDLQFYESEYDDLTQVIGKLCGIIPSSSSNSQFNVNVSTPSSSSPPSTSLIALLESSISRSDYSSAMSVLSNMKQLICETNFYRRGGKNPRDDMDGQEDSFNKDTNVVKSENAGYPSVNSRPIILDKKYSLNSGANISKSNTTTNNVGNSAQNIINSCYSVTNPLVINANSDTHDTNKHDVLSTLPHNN
Experiment: PBM E-score (8-mer binding enrichment) (E-score (-0.5 to 0.5)); higher = stronger / more preferred TF binding; most listed sequences are background and not binding sites
Details: protein concentration: 200 nM; construct: GST-full length
In short: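 Using PURExpress in vitro transcription/translation, GST-tagged yeast transcription factors were made in full-length or DNA-binding-domain form. These were applied at about 100-200 nM to double-stranded universal all-10-mer Agilent arrays, and bound protein was detected with fluorescent anti-GST. Scans were normalised with masliner before the Universal PBM Analysis Suite assigned E-scores to ungapped eight-base words pooled with their reverse complements.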

First: CAGCGGGG
Second: ATTATCGA
The “PBM E-score” value of the first is lower: -0.15 for the first, 0.0217 for the second.

Compared with GGGGTCGA, GACTGAGC is higher in “PBM E-score” value: -0.181 for the first, -0.171 for the second.

Going from CATCATAC to ATATCGAG, the “PBM E-score” value falls from 0.377 to 0.0118.

Going from ACGAAGCA to CCCTCCTA, the “PBM E-score” value falls from 0.152 to -0.253.

Compared with AATGCTCT, GCAAATAC is higher in “PBM E-score” value: 0.00824 for the first, 0.276 for the second.

Compared with GCCTAGTA, CATTATAA is higher in “PBM E-score” value: -0.109 for the first, 0.0479 for the second.

Compared with AGAGTTAC, GATGGAAC is lower in “PBM E-score” value: 0.101 for the first, -0.0249 for the second.

Going from AATGTTTG to ACAGTTGG, the “PBM E-score” value falls from 0.13 to -0.0101.

Compared with AAGCATAG, TAGACAGA is higher in “PBM E-score” value: -0.128 for the first, 0.0367 for the second.

Compared with ACCGATTG, GTAACGAA is higher in “PBM E-score” value: 0.167 for the first, 0.216 for the second.

First: AACATGCT
Second: AGATTCAA
The “PBM E-score” value of the first is lower: 0.041 for the first, 0.0684 for the second.

Compared with CAATATTG, AATTGTCA is higher in “PBM E-score” value: 0.152 for the first, 0.184 for the second.

First: CGGGGCCC
Second: CCCATACG
The “PBM E-score” value of the first is lower: -0.187 for the first, 0.143 for the second.

First: CGTATGCA
Second: AAAAGAGT
The “PBM E-score” value of the first is higher: 0.317 for the first, -0.0223 for the second.

First: AGAGAGGC
Second: CAGCCAGA
The “PBM E-score” value of the first is lower: -0.353 for the first, -0.312 for the second.

Compared with GAAAGCTC, GTACATGA is higher in “PBM E-score” value: -0.146 for the first, 0.184 for the second.

Compared with GAGGGTCA, CACCACGC is higher in “PBM E-score” value: -0.182 for the first, -0.0281 for the second.

Compared with CATAAGCC, CAACGAGG is lower in “PBM E-score” value: -0.0211 for the first, -0.123 for the second.

Compared with CTGGCATA, TCTAGTCA is higher in “PBM E-score” value: -0.0856 for the first, -0.0419 for the second.

First: CAACGAGA
Second: CCGCGGTA
The “PBM E-score” value of the first is higher: 0.157 for the first, -0.258 for the second.

First: GCTCTTAC
Second: TGCTCAAA
The “PBM E-score” value of the first is higher: 0.18 for the first, -0.0326 for the second.

First: AATGTGGA
Second: CATTCAGG
The “PBM E-score” value of the first is higher: -0.0739 for the first, -0.212 for the second.

Going from ACAGGCAA to CATAGGGC, the “PBM E-score” value falls from 0.0974 to -0.266.

Compared with GACGGGTA, ATTGCCAA is lower in “PBM E-score” value: -0.0399 for the first, -0.0464 for the second.

Compared with AGAGCGGC, ATATGATC is higher in “PBM E-score” value: 0.00213 for the first, 0.134 for the second.

Going from GCCAAAGA to GTGAAGCA, the “PBM E-score” value rises from -0.0869 to -0.0321.

Going from GAATGCGC to CGGTGTGA, the “PBM E-score” value rises from -0.0347 to -0.0205.

Going from CCTGGGGA to ATGACTAA, the “PBM E-score” value rises from -0.395 to 0.114.

Going from ACCGATGC to CAAGAGCG, the “PBM E-score” value rises from -0.219 to -0.162.

First: GTAGACAC
Second: CAGGTAAA
The “PBM E-score” value of the first is lower: 0.0833 for the first, 0.235 for the second.

First: CACACCGA
Second: GGTTGACA
The “PBM E-score” value of the first is higher: 0.0399 for the first, -0.0383 for the second.

First: ACATAACT
Second: GCTGAGCC
The “PBM E-score” value of the first is higher: 0.0944 for the first, -0.0522 for the second.

Compared with AGAAAATG, AAGAAAGG is lower in “PBM E-score” value: 0.0406 for the first, 0.00665 for the second.

First: AGCTTCAG
Second: CATGCGAG
The “PBM E-score” value of the first is lower: -0.0984 for the first, -0.0364 for the second.

First: ATCGAAGC
Second: ACAGGGAT
The “PBM E-score” value of the first is higher: -0.0646 for the first, -0.176 for the second.

Going from ACCAACCA to CAGGGACC, the “PBM E-score” value falls from -0.0223 to -0.198.

Going from CGTCGTTC to AGCCCCAT, the “PBM E-score” value falls from 0.236 to -0.225.

Compared with CCATGGGA, CTTCCGTC is higher in “PBM E-score” value: -0.181 for the first, 0.0378 for the second.

Compared with CATGAGAA, CCTGGGTA is lower in “PBM E-score” value: 0.139 for the first, -0.255 for the second.

First: CCATTCAC
Second: AAAACCCT
The “PBM E-score” value of the first is lower: -0.0988 for the first, -0.0666 for the second.

First: CCGGGGCA
Second: CCCATTAC
The “PBM E-score” value of the first is lower: -0.332 for the first, 0.122 for the second.

Compared with GGGCCGAC, CCATCTAG is higher in “PBM E-score” value: -0.241 for the first, -0.166 for the second.

Going from CGTTTACA to GATACTGA, the “PBM E-score” value falls from 0.138 to 0.102.

First: GCTGCTAC
Second: CTTGCTAA
The “PBM E-score” value of the first is lower: -0.226 for the first, -0.0906 for the second.

Compared with ACTCGGCG, AGTGAAGG is higher in “PBM E-score” value: -0.126 for the first, -0.0912 for the second.

First: ACCAAGAT
Second: ACCGTATG
The “PBM E-score” value of the first is lower: 0.0743 for the first, 0.105 for the second.

Compared with CCACCAAA, GATGGGCA is higher in “PBM E-score” value: -0.173 for the first, -0.152 for the second.

Compared with ACAGTCCA, TAATGCTA is higher in “PBM E-score” value: -0.0384 for the first, 0.275 for the second.

Compared with CAAGTCAA, GGTTCCTA is lower in “PBM E-score” value: -0.0625 for the first, -0.201 for the second.

Compared with ACAAGAGG, AGCTTGAG is lower in “PBM E-score” value: -0.156 for the first, -0.234 for the second.

First: CCGCGGCA
Second: CAACCATG
The “PBM E-score” value of the first is lower: -0.212 for the first, -0.0378 for the second.

Going from GTGGCTCA to ATCTCCAG, the “PBM E-score” value rises from -0.0741 to -0.00718.

First: AAAGCACC
Second: ATCTGTGA
The “PBM E-score” value of the first is lower: -0.276 for the first, -0.0628 for the second.

Compared with CGTATGAG, CGCTTCCC is lower in “PBM E-score” value: 0.267 for the first, -0.227 for the second.

Compared with AAAATCTG, TAGTAGCA is higher in “PBM E-score” value: 0.133 for the first, 0.136 for the second.

Compared with CGTAAGGA, AGAGTTCG is lower in “PBM E-score” value: 0.327 for the first, 0.122 for the second.

Going from AGTTCCAG to CCTCTCCC, the “PBM E-score” value falls from -0.222 to -0.359.

First: ATCGATGA
Second: AGTGCCGC
The “PBM E-score” value of the first is higher: 0.243 for the first, -0.144 for the second.

Compared with ACCTACGA, CCAGTCGC is lower in “PBM E-score” value: 0.159 for the first, -0.0974 for the second.

Going from CCTCAGAA to CACTGATA, the “PBM E-score” value rises from -0.198 to -0.0425.

First: CAGGCCTA
Second: GATGGGAA
The “PBM E-score” value of the first is higher: 0.0202 for the first, -0.214 for the second.

Going from CCCCAACA to GCACAAAC, the “PBM E-score” value rises from -0.215 to -0.102.

Compared with CCTGAAGG, CGCCCCGA is lower in “PBM E-score” value: -0.23 for the first, -0.261 for the second.

Compared with AGGTTAAG, AGATGAAA is higher in “PBM E-score” value: -0.209 for the first, 0.0142 for the second.

Compared with CTAGCGAA, CGGTAACG is higher in “PBM E-score” value: -0.217 for the first, 0.0517 for the second.

First: GGCGAGCC
Second: CGGCCTAA
The “PBM E-score” value of the first is lower: -0.341 for the first, -0.256 for the second.

First: CAGACGCA
Second: CATCGATC
The “PBM E-score” value of the first is higher: 0.055 for the first, 0.0238 for the second.

Going from ACATTCAT to AGCCAGGA, the “PBM E-score” value falls from 0.133 to -0.0294.

First: CGGTGGTC
Second: TCAAACCA
The “PBM E-score” value of the first is lower: -0.329 for the first, 0.0693 for the second.

Compared with CACTCTAC, ACCAGCAG is lower in “PBM E-score” value: 0.104 for the first, -0.148 for the second.

Compared with ATCGGGCA, TGCAACAA is higher in “PBM E-score” value: -0.161 for the first, 0.137 for the second.

Going from GGCTCACC to GCGGAGCC, the “PBM E-score” value rises from -0.335 to -0.301.

Going from GTATTAGA to ATAAGATG, the “PBM E-score” value falls from 0.222 to 0.117.

Compared with CATGCTAG, ATACCACC is lower in “PBM E-score” value: 0.0828 for the first, -0.0659 for the second.

Compared with CATATGTC, CTTGCTCC is lower in “PBM E-score” value: 0.167 for the first, -0.2 for the second.

Compared with GTCGACTA, GGTTCTAC is lower in “PBM E-score” value: 0.221 for the first, -0.115 for the second.

Going from CTCTATCC to GCTCAAAA, the “PBM E-score” value rises from -0.148 to 0.0938.

First: ACTTGGGA
Second: AATTCAAG
The “PBM E-score” value of the first is lower: -0.277 for the first, 0.0365 for the second.

Compared with TTATTAAA, CTCATGCA is lower in “PBM E-score” value: 0.221 for the first, 0.0469 for the second.

Going from GGCATGCC to AAAGACCT, the “PBM E-score” value rises from -0.252 to -0.0134.

Compared with AGATTCGA, GATTGATA is higher in “PBM E-score” value: 0.0181 for the first, 0.203 for the second.

Compared with ATTTTCTC, AGTAGCCA is lower in “PBM E-score” value: 0.0177 for the first, -0.124 for the second.

First: CATGCTGC
Second: CTGATAGA
The “PBM E-score” value of the first is lower: -0.0935 for the first, -0.00597 for the second.

Going from CCCTTATA to AAGGAAAG, the “PBM E-score” value falls from -0.00749 to -0.188.

Going from CTCAAGTC to AACGGGGC, the “PBM E-score” value rises from -0.157 to -0.00476.

First: AATATGGT
Second: ATAGGACC
The “PBM E-score” value of the first is higher: 0.113 for the first, -0.363 for the second.
